About 14,000 (4.5%) of roughly 310,000 compounds showed an effect of 50% or more. Effects have a minus sign here. The list shows a part of the results.
biological target: human ether-à-go-go-related gene (hERG) potassium channel (human, UniProt Q12809); assay: primary screen, population patch clamp on CHO cells stably expressing hERG
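Note: peak tail current of the secondary pulse compared with the same well before compound.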

human ether-à-go-go-related gene (hERG) potassium channel, sequence (Q12809 whole entry, looked up): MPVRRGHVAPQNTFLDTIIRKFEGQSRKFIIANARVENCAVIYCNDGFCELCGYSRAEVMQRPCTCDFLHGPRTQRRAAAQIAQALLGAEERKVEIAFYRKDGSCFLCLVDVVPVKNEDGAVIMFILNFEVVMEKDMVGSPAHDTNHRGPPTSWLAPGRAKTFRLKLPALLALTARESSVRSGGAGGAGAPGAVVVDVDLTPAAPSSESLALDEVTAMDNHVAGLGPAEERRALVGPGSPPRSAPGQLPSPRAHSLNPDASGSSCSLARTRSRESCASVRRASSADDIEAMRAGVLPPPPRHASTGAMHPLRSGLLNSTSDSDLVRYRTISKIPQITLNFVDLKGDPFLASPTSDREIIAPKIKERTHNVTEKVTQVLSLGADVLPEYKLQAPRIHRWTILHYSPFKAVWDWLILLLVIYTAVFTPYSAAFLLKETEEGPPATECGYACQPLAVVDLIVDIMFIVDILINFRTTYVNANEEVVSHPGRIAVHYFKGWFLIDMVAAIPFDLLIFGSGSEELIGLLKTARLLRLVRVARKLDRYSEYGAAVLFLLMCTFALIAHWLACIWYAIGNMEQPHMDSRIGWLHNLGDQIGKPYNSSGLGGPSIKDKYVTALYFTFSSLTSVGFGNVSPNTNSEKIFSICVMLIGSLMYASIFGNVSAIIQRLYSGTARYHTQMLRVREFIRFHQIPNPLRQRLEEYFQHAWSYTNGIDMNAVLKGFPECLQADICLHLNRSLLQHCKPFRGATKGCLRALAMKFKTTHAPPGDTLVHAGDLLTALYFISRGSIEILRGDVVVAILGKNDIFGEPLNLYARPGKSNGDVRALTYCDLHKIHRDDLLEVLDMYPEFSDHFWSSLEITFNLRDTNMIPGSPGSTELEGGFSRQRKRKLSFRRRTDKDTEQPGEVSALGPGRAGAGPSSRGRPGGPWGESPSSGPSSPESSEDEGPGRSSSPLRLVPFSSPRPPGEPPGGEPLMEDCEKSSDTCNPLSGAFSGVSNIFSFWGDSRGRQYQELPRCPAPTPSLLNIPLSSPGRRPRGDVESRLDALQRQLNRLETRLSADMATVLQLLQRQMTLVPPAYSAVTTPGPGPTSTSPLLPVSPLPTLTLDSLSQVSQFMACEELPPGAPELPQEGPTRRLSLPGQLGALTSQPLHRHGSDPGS

Structure (SMILES) | hERG current change (%, negative = inhibition) at 10uM
CCOc1cc(S(=O)(=O)Nc2ccc(Cl)cn2)ccc1F | 18%
CCOC(=O)C1=C(CBr)NC(=O)NC1C (stereo not drawn) | 26.6%
O=c1c2ccccc2nnn1-c1ccc(Br)cc1 | 12%
COC(=O)Cn1ccc2cc(S(=O)(=O)N3CCCCC3)ccc21 | -8.73%
CC(=O)OC(C[N+]1(C)CCCCCC1)c1ccccc1.[I-] (stereo not drawn) | 18.1%
O=C(NNc1ccccc1F)c1ccccc1 | -6.12%
C=CCNc1oc(-c2cccs2)nc1S(=O)(=O)c1ccccc1 | -24.7%
CCN1CCN(C(=O)COc2ccc(S(=O)(=O)Nc3ccc(Cl)cc3)cc2)CC1 | -17.6%
O=C(N/N=C/c1ccco1)c1cc(C2CC2)[nH]n1 | 18.1%
COc1nc(-c2ccc(Cl)cc2)nnc1C | 2.25%
COc1ccc(CNC(=O)c2cccc(N3CCCC3=O)c2)cc1 | -5.23%
Cc1ccc(NC(=O)NC(=O)CN2CCC(C(N)=O)CC2)c(C)c1 | 12%
O=C(O)c1ccc2c(c1)ncn2C1CCCC1 | 21.1%
CCc1noc(C)c1C(=O)N1CCCSC1=Nc1ccccc1 | 2.65%
O=C(CCc1ccc(S(=O)(=O)NCCc2ccccc2)cc1)Nc1ccc2c(c1)OCO2 | 12.3%
CCOc1ccccc1NC(=O)NC(=O)N(C)S(=O)(=O)c1ccc(C)cc1 | 12.8%
CCOc1ccc(NC(=O)CCC(=O)O)cc1 | 5.48%
Cc1cc(C)cc(Nc2c3c(nc4ncnn24)CCC3)c1.Cl | -13%
Cc1cccc(NC(=O)CSc2nc(N)cc(N)n2)c1 | 2.95%
CCc1nnc(NC(=O)c2cccnc2)s1 | 10.2%
COCCNc1cc(-c2ccccc2)nc2cc(-c3cccc(F)c3)nn12 | 9.8%
COCCCNC(=O)CC(NS(=O)(=O)c1ccc(C)cc1)c1ccco1 (stereo not drawn) | 15%
CCc1ccc(Nc2oc(C)cc(=O)c2C(C)=O)cc1 | -0.0348%
CC(C)(C)C1CCc2onc(C(=O)O)c2C1 (stereo not drawn) | 16.7%

Structure (SMILES) | hERG current change (%, negative = inhibition) at 10uM
COc1cc(/C=N/NC(=O)c2ccc(NS(=O)(=O)c3cccs3)cc2)cc(OC)c1O | 10.5%
CCN(CC)C(=O)CSc1nc(O)c(Cc2ccccc2)c(=O)n1-c1ccccc1C | 2.09%
CCOc1ccc(N2C(=O)CC(N3CCN(c4ccc(F)cc4)CC3)C2=O)cc1 (stereo not drawn) | -7.42%
CCOCCCN1CN(S(=O)(=O)c2ccc(Cl)cc2)c2nc3ccccc3nc21 | -8.09%
O=C1CN(C(=O)/C=C/c2ccccc2)CCN1 | 18.2%
Cc1ccccc1NS(=O)(=O)c1ccc(C(=O)N2CCCC(C(F)(F)F)C2)cc1 (stereo not drawn) | 6.13%
O=C(NCC(=O)N1CCCC1C(=O)O)OC1CCCCC1 (stereo not drawn) | -6.8%
COCCn1c(=S)[nH]c2ncccc2c1=O | 20.3%
NC(=O)CC(NC(=O)Cc1ccc(Br)cc1)c1ccc(N2CCN(c3ccccn3)CC2)c([N+](=O)[O-])c1 (stereo not drawn) | 17.2%
CCSc1ccccc1C(=O)Nc1cc(C)on1 | -4.62%
Cc1ccc(Cc2c(C)nc3nc(SCC(=O)NCCCN4CCCC4)nn3c2C)cc1 | -28.4%
CC(C)NC(=O)NCCCCCCS(C)=O (stereo not drawn) | 9.44%
COc1ccccc1-n1cnc2cc(NS(=O)(=O)c3ccccc3)ccc21 | -57.5%
O=C(NC1CCCCC1)C1CCN(S(=O)(=O)c2cccc3cccnc23)CC1 | 0.0654%
CCc1ccc(N(CC)C(=O)Cc2c(C(=O)O)n(C)c3ccccc23)cc1 | 19.5%
COc1ccc(OC)c(NC(=O)CCC(=O)Nc2nnc(C(F)(F)F)s2)c1 | -0.147%
Cc1cccn2c(=O)c3cc(C(=O)NC4CCCCCC4)sc3nc12 | 9.51%
CCOC(=O)C1CCC(CNCc2ccccc2C)CC1.Cl (stereo not drawn) | -24.4%
CCC(=O)NCc1cc(-c2nn(C)c(=O)c3ccccc23)ccc1C | -2.5%
O=C(Cc1ccccc1Cl)Nc1ccc(S(=O)(=O)Nc2nccs2)cc1 | 13.9%
Cc1cc(C)n(-c2ccc(C(=O)Nc3cccnc3Cl)cc2)n1 | 13.5%
CCOc1cc(N2CCOCC2)c(OCC)cc1NC(=O)CN1C(=O)NC(Cc2ccccc2)C1=O (stereo not drawn) | -25.5%
CCOC(=O)c1ccc(N2C(=O)c3cccc4c(C(=O)O)ccc(c34)C2=O)cc1 | 16.2%
Cc1ccnc(NS(=O)(=O)c2ccc(NC(=O)/C=C/c3ccccc3)cc2)n1 | 8.71%

Structure (SMILES) | hERG current change (%, negative = inhibition) at 10uM
Cc1nc2ccccc2n1CC(O)COCC1CC=CCC1 (stereo not drawn) | -20.5%
CO/N=C\CC(=O)Nc1ccc(F)cc1 | 2.81%
Cc1cc(N2CCCCC2)nc(N2CCCCC2)n1 | -39%
C=CCn1c(O)c(C=NCCCOc2ccc(CC)cc2)c(=O)[nH]c1=S | 21.8%
CC(O)CNc1nc2c(c(=O)n(Cc3ccc(Cl)c(Cl)c3)c(=O)n2C)n1C (stereo not drawn) | -17.3%
Clc1ccc(Cl)c2sc(N3CCCC3)nc12 | 8.31%
Cc1ccc(N2C(=O)c3ccccc3C2(O)c2ncc[nH]2)cc1 (stereo not drawn) | 15%
C=C(C)Cn1c(C2CC(=O)N(Cc3ccccc3)C2)nc2ccccc21 (stereo not drawn) | -30.2%
COc1ccc(CN(C)C(=O)C23CC4CC(CC(C4)C2)C3)c(OC)c1 | -25%
COc1ccc(C(=O)N2CCN(c3ccccc3)CC2)cc1S(=O)(=O)N1CCCC1 | -34.5%
S=c1[nH]nc(CN2CCCCC2)n1-c1ccc(Cl)cc1 | 17.1%
C=CCOc1ccc2nc(NC(=O)OC)[nH]c2c1 | -4%
Cc1ccc(C2=NNC(C(O)C(O)C(O)CO)S2)cc1 (stereo not drawn) | 11.6%
COc1ccc(N=C2SC(CC(=O)Nc3cccc(Cl)c3)C(=O)N2Cc2ccco2)cc1 (stereo not drawn) | 1.84%
COc1cccc(-c2nc(CS(=O)(=O)CC(=O)Nc3cc(F)ccc3F)c(C)o2)c1 | 8.16%
O=C(Nc1cccc(-c2cn3cccnc3n2)c1)Nc1ccccc1F | 14.7%
CCOC(=O)N1CCC(N(CCN(C)C)C(=S)Nc2ccc(F)c(Cl)c2)CC1 | -6.98%
CCOC(=O)c1c(C)[nH]c(C)c1C(=O)COC(=O)CCOc1ccccc1OC | 3.86%
COCCOC(=O)c1c(C)n(C)c2ccc(OC(=O)N(C)C)cc12 | 0.575%
CNC(=O)c1cc(NC(=O)CCn2nc(-c3ccccc3)c3ccccc3c2=O)ccc1OC | -9.1%
Cc1oc(-c2cccs2)nc1CS(=O)CC(=O)NCCCOC(C)C (stereo not drawn) | -3.05%
CC(C)CCNC(=O)CN1N=C(c2ccc(Cl)cc2)CCC1=O | -15.8%
CC(=O)Nc1ccc(S(=O)(=O)NCc2nc(-c3ccccc3C)no2)cc1 | 14.3%
C=CCn1c2ccccc2c2nnc(SCc3ccc4nonc4c3)nc21 | 0.592%

Structure (SMILES) | hERG current change (%, negative = inhibition) at 10uM
Cc1cc(=O)n2nc(N3CCCC(C(=O)NCc4ccccc4C)C3)sc2n1 (stereo not drawn) | -23%
Cc1ccccc1C(=O)OC(C)CN1CCN(C)CC1.Cl (stereo not drawn) | -10.7%
C=CCNC(=O)NC(=O)COC(=O)/C=C/c1cccc([N+](=O)[O-])c1 | -24.6%
Cl.O=C(Cc1ccccc1)NCCN1CCCC1 | -12.3%
O=C(O)CCN=Cc1c(O)c2ccccc2oc1=O | 8.66%
Cc1ccc(NC(=O)N/C=C/c2ccco2)cc1C | -1.57%
CCCCNC1C(CC)C(CCC)C(C#N)(C#N)C1(C#N)C#N (stereo not drawn) | -5.65%
CCc1cccc(C)c1NC(=O)Cn1c(NCCO)nc2ccccc21 | -4.86%
COc1cc(Cl)cc(C(=O)O)c1OCC(=O)O | 14.3%
C/C(=C/CCC(C)[C@H]1CC[C@@]2(C)C3=C(CC[C@]12C)[C@@]1(C)CCC(=O)C(C)(C)[C@@H]1CC3)C(=O)O (stereo partly drawn) | 30.1%
CCc1ccccc1N1C(=O)c2ccccc2S1(=O)=O | 1.01%
Cc1ccc(C(C)C)c(OCCNC(=O)c2ccccc2O)c1 | 15%
COC(=O)CCC(=O)NNC(=O)c1ccc([N+](=O)[O-])cc1 | 17.3%
Cc1ccc(-n2c(SCc3cc(=O)n4ccsc4n3)nnc2-c2cccnc2)c(C)c1 | -25.5%
CCCCn1c(=O)[nH]c(=O)c2c1nc(-c1ccccn1)n2CC | -2.03%
CCOC(=O)N1CCN(S(=O)(=O)c2c(C(=O)N3CCCCC3)c(C)n(C)c2C)CC1 | 16.1%
COc1ccccc1NC1=NCC(=O)N1Cc1ccccc1 | 3.09%
Cl.OCCN(CC#CC(O)(c1ccccc1)C1CCCC1)CCO (stereo not drawn) | 5.41%
CN(C(=O)CC1C(=O)NCCN1Cc1cccc(F)c1F)C1CCOCC1 (stereo not drawn) | 17.3%
OC1(c2ccc(Cl)cc2)CN(c2ccccc2)C2=[N+]1CCS2.[Br-] (stereo not drawn) | -50.4%
COc1ccc(NC(=O)CSc2ccccc2)cc1S(=O)(=O)N1CCCCC1 | -0.0204%
